Experimental data: ChEMBL document CHEMBL5335779, “The research progress of SARS-CoV-2 main protease inhibitors from 2020 to 2022” (Eur J Med Chem, 2023)

Tested on: SARS-CoV-2
Assay: microbe, parasite or virus in culture
Settings: Severe acute respiratory syndrome coronavirus 2, nCoV-2019BetaCoV/Wuhan/WIV04/2019, Vero C1008

Row | Structure (SMILES) | EC50 [µM]
1 | O=C[C@H](C[C@@H]1CCNC1=O)NC(=O)[C@H](Cc1ccccc1)NC(=O)c1cc2ccccc2[nH]1 | 0.29
2 | CC(C)C[C@H](NC(=O)/C=C/c1ccccc1)C(=O)N[C@H](C=O)C[C@@H]1CCNC1=O | 1.06
